# Measurements as given in the supplement of paper PMC3334620.
# In all, about 33,000 sequences were measured (“E-score (-0.5 to 0.5)”: median about -0.054, highest 2% from about 0.35 on). Some of the results follow.
# Molecular target: T1, Stb5 (UniProt P38699)
# T1 sequence: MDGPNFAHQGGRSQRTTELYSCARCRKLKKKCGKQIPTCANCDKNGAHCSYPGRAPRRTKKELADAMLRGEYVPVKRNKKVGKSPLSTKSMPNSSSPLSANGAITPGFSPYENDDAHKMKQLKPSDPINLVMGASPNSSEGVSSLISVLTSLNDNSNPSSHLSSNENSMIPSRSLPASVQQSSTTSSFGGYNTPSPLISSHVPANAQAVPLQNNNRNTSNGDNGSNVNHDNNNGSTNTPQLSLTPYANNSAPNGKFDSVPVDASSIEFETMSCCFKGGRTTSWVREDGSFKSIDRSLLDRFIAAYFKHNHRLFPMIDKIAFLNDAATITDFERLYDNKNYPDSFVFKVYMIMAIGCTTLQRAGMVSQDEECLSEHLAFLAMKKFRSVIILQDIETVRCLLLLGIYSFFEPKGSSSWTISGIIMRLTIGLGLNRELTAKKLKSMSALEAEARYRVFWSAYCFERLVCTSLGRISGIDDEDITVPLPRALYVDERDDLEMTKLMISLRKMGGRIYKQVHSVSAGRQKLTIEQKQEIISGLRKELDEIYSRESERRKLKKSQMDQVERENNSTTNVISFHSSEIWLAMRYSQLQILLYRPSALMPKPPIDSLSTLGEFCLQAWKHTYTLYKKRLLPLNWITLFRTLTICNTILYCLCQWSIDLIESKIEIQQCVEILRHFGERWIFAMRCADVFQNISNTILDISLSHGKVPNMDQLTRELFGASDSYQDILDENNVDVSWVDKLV
# Experiment: PBM E-score (8-mer binding enrichment) (E-score (-0.5 to 0.5)); higher = stronger / more preferred TF binding; most listed sequences are background and not binding sites
# Settings: protein concentration: 200 nM; construct: GST-full length
# Procedure, shortened: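 Bound GST-tagged yeast transcription factors, applied at about 100-200 nM to double-stranded universal all-10-mer Agilent arrays, were detected with fluorescent anti-GST. Scans were normalised with masliner. A modified Wilcoxon-Mann-Whitney statistic, the E-score, was assigned to each ungapped eight-base word pooled with its reverse complement by the Universal PBM Analysis Suite.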
row,Sequence,PBM E-score
1,CACCCAAA,-0.0454
2,CTGCGTAA,-0.11
3,ACCAATAA,0.0928
4,CTTTTGCA,-0.0933
5,TCCAGGAA,-0.214
6,CCATAGGA,-0.155
7,AAATTCAG,-0.221
8,ATCCAGAG,-0.273
9,GTGCAAAA,-0.162
10,GAACCACC,0.192
11,AGTCAGCG,0.0404
12,CTTGACGC,-0.0574
13,TCCCCTAA,-0.134
14,TCGCAAGA,-0.172
15,ACTGCTGC,-0.0258
16,GTCGGAGA,0.373
17,ATGGCTAG,-0.223
18,ATAGCTTA,-0.105
19,AACGTCGG,0.313
20,CATGATGC,-0.12
21,AGGAGACC,0.0594
22,ATGGCGCG,0.0581
23,GCAGCCCC,0.00528
24,CGTGTGCC,-0.19
25,CCGTGCGC,0.15

row,Sequence,PBM E-score
1,GGATATTA,0.304
2,ACCTTACG,0.0208
3,AGATGCAT,-0.242
4,CAACTCAG,-0.194
5,AGTAATGC,0.0229
6,AACCGAGA,0.0119
7,ATTCGTAG,-0.164
8,CGAGGCTC,-0.067
9,CACGCGGG,0.217
10,GTAAACCA,0.139
11,CTAGCGGA,0.169
12,CTCCCCAC,-0.126
13,GCTAGCCC,0.0259
14,TCGACAAA,-0.183
15,ATTTTCAG,-0.111
16,GGTAAGAA,0.203
17,ATCCTCTA,-0.285
18,ATGGCAGC,-0.144
19,AGGAAAAC,-0.152
20,CTCACTGC,-0.0459
21,TTTAAAAA,0.191
22,GACTATTA,-0.0815
23,ATAACGAT,-0.161
24,AGGGAATC,-0.137
25,CATGTAGG,-0.105

row,Sequence,PBM E-score
1,ATGGATAA,0.0427
2,AGCCGTCG,0.173
3,AGGGAAGA,-0.209
4,ACTGCGCG,0.122
5,AAATACTG,-0.0876
6,CACGGAGG,0.175
7,CAAGTATA,-0.122
8,CATACGGG,0.102
9,AGAGCCGA,0.224
10,AGCTTTCC,-0.0738
11,ATCCGAAC,0.177
12,AGGTGAGA,-0.192
13,GGCTATTA,-0.0171
14,CTAGTACA,-0.105
15,CTCTGTGA,-0.225
16,CGTACCAA,-0.067
17,ACGTGATG,-0.172
18,ACCACGAA,-0.247
19,GTGGACGA,-0.124
20,AAACAGCG,0.277
21,AGAACCCT,-0.0809
22,CTCCTAGA,-0.247
23,CAAATAGA,-0.098
24,AGCTGTTA,-0.234
25,GTACAAGA,-0.134

row,Sequence,PBM E-score
1,ATTGAGCA,-0.176
2,AAGCTGTA,-0.213
3,ACCCTCGA,-0.213
4,AAAATGAC,0.0143
5,CTTCAATC,-0.00212
6,ACATTAAT,0.0868
7,CGGAGGGC,-0.0349
8,ATAACCCA,-0.157
9,GATTGTCA,-0.108
10,AGAGAGAG,-0.277
11,CCGTTGGA,0.17
12,AACCTAGC,-0.17
13,CATTGCAC,-0.0998
14,CAATTCCC,0.168
15,TGCGTCAA,-0.071
16,TCCGACGA,0.252
17,CTCAGGAG,-0.181
18,ACGGCTGC,0.00857
19,CACCAGTG,-0.202
20,CCATCGAA,-0.127
21,CAGACTAG,-0.251
22,CGCTGGAC,-0.0182
23,AGTTTCAC,-0.201
24,CAGTTCCC,-0.00039
25,CAGTTGGG,-0.246

row,Sequence,PBM E-score
1,ATAATCGA,-0.00434
2,ACTTCCGC,0.266
3,AGAGTGGG,-0.0666
4,ACCGTCGC,0.332
5,ACGCATAC,-0.0599
6,ACATGACT,-0.0561
7,CGCAGTCA,0.0715
8,CTATTGCA,-0.148
9,ACCTGTGG,-0.0937
10,AAGCAAGA,-0.283
11,ACCATTGA,-0.106
12,CTTATAGA,0.0618
13,GACAATCC,-0.00999
14,TAAGTCAA,-0.123
15,ACCGGGCG,0.254
16,CAATTGGA,-0.155
17,ATGGTTTC,-0.0564
18,ATGCTAGC,0.102
19,AGTACTGA,-0.0745
20,CAGACCGC,0.272
21,ACTATCAG,-0.211
22,AATCAGTC,-0.0278
23,CCAAAAAC,-0.0575
24,AGATCTCG,-0.0591
25,CACATTCA,-0.0813

row,Sequence,PBM E-score
1,CAACCCCC,0.14
2,CGGCCCGA,0.34
3,CAAGTCCA,-0.171
4,CGAATAAG,0.021
5,CAACACGA,-0.102
6,AACGCAAG,-0.0897
7,GTATCGTA,-0.256
8,GCCTACGA,-0.254
9,ACCACGCC,0.044
10,TCGACCGA,0.0678
11,ACAAACCG,0.0581
12,GACAAGTA,0.0216
13,CGCTCGAA,-0.0626
14,AGGTCCTG,-0.205
15,AGAGCTTC,-0.175
16,AAACCACA,0.0295
17,ACGAAACG,0.0619
18,TAGATAAA,-0.133
19,CACTCAAC,-0.192
20,GGTGGATA,0.128
21,GCTGCTTA,0.0623
22,GACTAACC,0.101
23,ACATAGTG,0.0172
24,CCGTTTTA,0.337
25,CCAATTGG,-0.121

row,Sequence,PBM E-score
1,CCCACAAC,-0.0405
2,CGGTGGGA,0.257
3,AAAACTCT,-0.157
4,CACTCGCA,-0.203
5,ATAGGCCA,-0.052
6,AGCGTGCA,-0.0478
7,ATTCACTG,-0.0515
8,CTAATGGC,-0.0674
9,GATACTGC,-0.0132
10,CACCGGGG,0.33
11,ATCTGAAA,-0.0786
12,AGACGTCC,-0.13
13,CCCTGTAG,-0.0727
14,AGAGGATA,-0.168
15,ACGTTCCG,-0.0136
16,CCTGCCAG,-0.205
17,GTTCCGGA,0.231
18,ATGATCCG,0.165
19,AGTGGTAC,-0.135
20,ATGCAGCG,0.172
21,AAAACGAC,-0.207
22,AGAATAGG,-0.0639
23,GCTGTGCA,-0.241
24,CCCCCCGC,0.068
25,GGCAGGCC,-0.103

row,Sequence,PBM E-score
1,GGCCAGCA,-0.249
2,CAAAGGTG,-0.0535
3,GGAGACAA,0.26
4,CCCAATCC,-0.0718
5,CCATCAGC,-0.121
6,CCAGGTTC,-0.252
7,AATCCTAT,0.106
8,GCGACCCA,0.0254
9,CTTTCCTC,-0.107
10,ATCCCCAT,0.0305
11,ATGTATGC,-0.00766
12,CCGTACGC,0.18
13,CAAGGGAG,-0.214
14,GCGGGAGC,0.0709
15,AAGCCGGT,0.237
16,AGCTTCGC,-0.231
17,TATTGTGA,-0.0986
18,AAAGACTA,-0.0271
19,CGTCCTAG,-0.139
20,CAGCTATC,-0.193
21,CCCCATCA,0.0625
22,ATCTAATA,-0.127
23,CGTAGATC,0.0562
24,ACTAGACA,-0.184
25,AAGTCTGA,-0.407

row,Sequence,PBM E-score
1,CGAGGCCG,0.123
2,CTAGGGAC,-0.033
3,CACAGAAC,-0.118
4,GTGTCTCA,-0.165
5,CAGCCATA,-0.263
6,AGTACGAC,-0.0155
7,AGGAGAAG,-0.263
8,AGCCATTC,-0.304
9,AATAATAT,0.262
10,CTTGTCAA,0.0815
11,CACGTGTA,-0.157
12,CCACATGG,-0.139
13,GACATCTA,-0.148
14,AGCTGTTG,-0.145
15,TCGAGTAA,-0.155
16,AGGCGCCT,-0.136
17,ATGAGAAG,-0.232
18,ACGCGAGC,-0.155
19,GAGGTCCA,-0.137
